Patent publication US20130131319A1 (Chugai, published 2013)

Target: T1, mouse FcRn (mouse, UniProt Q61559 22-297; P01887 21-119, limits assumed)
T1 sequence (looked up) 1: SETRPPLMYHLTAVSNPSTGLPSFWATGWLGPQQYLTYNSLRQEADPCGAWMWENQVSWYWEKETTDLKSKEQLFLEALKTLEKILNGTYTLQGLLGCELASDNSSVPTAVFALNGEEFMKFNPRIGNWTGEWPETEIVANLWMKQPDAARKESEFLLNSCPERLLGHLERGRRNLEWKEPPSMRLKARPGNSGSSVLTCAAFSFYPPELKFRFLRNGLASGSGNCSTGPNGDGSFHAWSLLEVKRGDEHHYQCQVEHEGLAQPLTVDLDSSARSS
T1 sequence (looked up) 2: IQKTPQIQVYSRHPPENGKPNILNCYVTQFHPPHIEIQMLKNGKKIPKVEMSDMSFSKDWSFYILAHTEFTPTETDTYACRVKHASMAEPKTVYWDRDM
Assay: Biacore pH 7.4, 25C, mouse FcRn analyte

Kd: 117 nM
B1: VH3/L (WT)-IgG1-F20 (antibody)
heavy: QVQLQESGPGLVKPSETLSLTCAVSGHSISHDHAWSWVRQPPGEGLEWIGFISYSGITNYNPSLQGRVTISRDNSKNTLYLQMNSLRAEDTAVYYCARSLARTTAMDYWGEGTLVTVSS[human IgG1 constant region with V308F N434Y (EU numbers) omitted here]
light: DIQMTQSPSSLSASVGDRVTITCRASQDISSYLNWYQQKPGKAPKLLIYYTSRLHSGVPSRFSGSGSGTDFTFTISSLQPEDIATYYCQQGNTLPYTFGQGTKVEIKRTVAAPSVFIFPPSDEQLKSGTASVVCLLNNFYPREAKVQWKVDNALQSGNSQESVTEQDSKDSTYSLSSTLTLSKADYEKHKVYACEVTHQGLSSPVTKSFNRGEC
notes: copies: 2 + 2
